PubChem BioAssay (NCI)
More than one record can exist for a structure, and the calls need not agree.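 Interpretation: 100, growth as untreated; towards 0, rising growth inhibition; 0, no net growth; 0 to -100, cell death. Compounds scoring below 10 were considered active.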 A number of entries come with more than one value. This list holds those alone. An entry can have further records. These are repeated runs of one drug, at the concentration stated with the values; one value stands for one run. Counts like (3×) stand for listed records that agree.

Key:
[1] = test system: HOP-62 NSCLC; experiment: NCI-60 one-dose screen, 48 h (100 = growth as untreated, 0 = no growth, -100 = all killed); conditions: 25 µM
[2] = test system: NCI-H460 lung; experiment: as above; conditions: 0.25 µM

With `COc1cccc2c1C(=O)c1c(O)c3c(c(O)c1C2=O)C[C@@](O)(C(=O)CO)C[C@@H]3OC1CC(N)C(O)C(C)O1` (stereo not given in full) the growth ([1]; runs of 1998) was “active: -26.9, -35, -52.2, -38.9, -2.74, -30, -51.1, -33.5, -57.5, -35.4, -17.9, 0.946, -32, -60.5 (2×), -44.3, -24.3, -17.2, -25.9, -20.4, -7.17, -21.3% and inactive: 25.5%”, the growth ([1]; runs of 1999) was “active: 1.7, -25.6, -39.9, -20.3, -83.3, 4.1, -48.5, -60.2, -8.33, -63.3, 5.32, -100, -53, -66.6%” and the growth ([1]; runs of 2000) was “active: -7.53, -100, 0.184, -12.9%”. For the same compound, the growth ([2]; runs of 2006) was “inactive: 14.6% and active: 3.93%”, the growth ([2]; runs of 2007) was “inactive: 10.2 (2×), 12.3, 15.2, 13.2, 12.7, 13.3, 10.8, 11.6, 11.3, 15 (2×), 14.9, 10.1, 26.1, 24.9, 24.8, 10.9, 10.7, 13.5% and active: -2.86, 4.33, 5.79, 5.56, 8.96, 8.55, 9.03, 0.772, 6.94, 7.56, 9.4, 9.53, 9.54, 8.89, 8.52, 5.44, -4.24, 9.27, 9.15%” and the growth ([2]; runs of 2008) was “inactive: 10.8 (2×), 12.6, 16.4, 11.4 (2×), 11.9, 102, 17.9, 17.8, 10.1, 16.6, 16.8, 13.6 (2×), 16.1, 11.3% and active: 9.46, 6.42, 9.41, 6.5, 9.54, 9.9, -6.55, 7.19, 1.64, 9.01, 6.88, 8.17, 4.9, 4.46, 9, 5.73, 5.11, 5.23, 7.56, 5.94, 7.22, 7.82, -0.823, 8.03, -7.39, 8.75, 9.48, -2.5, 4.96, 7.37, 7.81, 9.64, 9.08, 6.8, 7.15, 5.39%”. For the same compound, the growth ([2]; runs of 2009) was “active: 8.74, 6.68, 7.2, 4.99, -3.01, 7.8, 8.9, 8.52, 7.16, 9.73, -23.8, -25.6, 8.1, 5.82, 7.93 (2×), 5.66, 7.68, 6.21, 4.8, 6.15 (2×), 6.58, 3.57, 3.17, 9.49, 7.63, 8.04, 2.92, 8.64, 7.09, -3.28, 9.99, 8.35, 5.25, 1.29, 2.77, 7.83, -6.26, -32.8, 8.56, 3.29, 6.22, 4.25, 7.82, 0.215, -7.32, 5.39, 9.98, 7.25, 9.94, 8.88, 8.6% and inactive: 12.9, 10.9, 12.3, 11.7, 13.4, 15.4, 13, 14.8, 10.2, 13.6, 13.9, 14.9, 20.1, 15.1, 16.8, 14.5, 17%”, the growth ([2]; runs of 2010) was “inactive: 13.7, 10.8, 11.7, 12, 10.6, 11.6 (2×), 12.3 (2×), 10.4 (2×), 14.6, 12.7, 11.5, 15.3, 14.9% (2×) and active: 2.27, 6.67, 9.82, 9.61, 5.7, 3.4, 4.73, 2.5, 4.49, 5.58, 7.78, 8.2, 7.71, 6.45, 7.08, 6.33, 9.75, 7.77, 8.92, 8.21, 9.68, 7.53, 4.57, 2.79, 6.04, 5.67, 2.94, 6.94, 8.9, 8.47, 6.42, 9.35, 6.81, 5.93%” and the growth ([2]; runs of 2011) was “active: 7.08, 8.11 (2×), 6.59, 6.74, 8.82, 9.81, 9.49, 6.85, 8.81, 9.68, 6.73, 9.78, 6.23, 8.36, 6.4, 7.72, 6.49, 7.49, 5.16, 5.65, 8.23, 8.85, 8.47, 9.67, 6.07, 6.96, 9.23, 7.45, 7.42, 8.5, 9.19, 6.33, 9.24, 8.87, 6.71, 5.9, 9.62, 5.6, 7.61, 7.02, 8.74, 8.67% and inactive: 15.4, 11.7, 15.2, 11.8, 12.6, 10.9, 13.4, 10.6, 13.9, 10.1 (3×), 10.8, 11.1, 13.1, 10.2, 16%”. The growth ([2]; runs of 2012) was “active: 8.4, -1.82, 8.68, 6.7, 9.23, 9.44, 9.81, 9.4, 5.95, 4.87, 3.78, 6.8, 3.37, 6.85, 6.03, 1.86, 4.7, 3.41, 5.26, 6.92, 8.78, 9.11, 9.31, 6.5, 9.14, 6.93, 8.76, 7.63, 4.32, 7.82, 7.87, 4.07, 8.98, 7.98, 6.86, 1.97% and inactive: 10.6, 10.7, 17.1, 10, 11.9, 13.3 (2×), 10.8, 14.6 (3×), 12.6, 11.1, 10.1 (2×), 15.2, 14.7, 13.1 (2×), 11.3 (3×), 14.1, 13.9, 13.5, 14.5, 14, 13.4, 14.4, 16%”, the growth ([2]; runs of 2013) was “inactive: 10.4 (2×), 12.1 (3×), 10.6 (2×), 10.1 (2×), 13.6 (2×), 12.9, 10.2, 14.6, 12.3, 12.6, 10.9 (2×), 15.6, 15, 15.2, 12, 10.8, 11.6, 13.2% and active: 9.02, 8.35, 8.52, 6.75, 9.91, 9.98, 9.95, 8.17, 7.35, 9.64, 7.69, 8.55 (2×), 9.1, 8.38, 8.66, 7.73, 7.49, 8.58 (2×), 8.97, 8.43, 9.71, 9.57, 7.24, 5.7, 9.27, 6.39, 8.84, 8.93, 7.07, 4.41, 5.31, 2.62, 6.38, 4.61, 4.51, 7.88, 5.97, 6.49, 7.86, 4.81, 6.29, 5.44, 6.56, 5.71, 7.47%” and the growth ([2]; runs of 2014) was “active: 6.16 (2×), 5.83, 9.4, 4.73, 3.85, 6.04, 3.37, 5.63, 5.78, 7.02, 6.62, 6.2, 7.52, 7.41, 8.57 (2×), 6.24 (2×), 8.89, 6.19, 8.82, 8.32, 9.42, 8.94 (2×), 6.65 (2×), 8.61, 8.5, 6.85, 8.92, 9.94, 8.22, 9.25, 9.73, 9.96, 8.95, 9.27, 9.17, 7.6, 8.07, 9.59, 9.19, 5.64, 5.84, 9.61, 7.21, 9.08, 4.63, 9.16, 5.69, 6.41 (2×), 7.18, 8.38, 9.26, 8.47, 9.34, 7.85, 5.85% and inactive: 10.7 (3×), 11.4, 10.8 (2×), 11.5 (2×), 13.1, 12.1, 10.9, 10.6, 13.2, 11.3, 10.1%”. The growth ([2]; runs of 2015) was “inactive: 10.2, 11.6, 10.9, 13.6, 10.1, 12.7, 13.7, 10.6, 10.4% and active: 5.99, 5.28, 6.46, 4.97, 9.2, 9.4 (3×), 8.67, 7.7, 7.38, 9.54, 6.5, 5.46, 6.27, 3.45, 4.79, 5.63, 6.47, 5.87, 5.27, 3.81, 7.03, 5.66, 4.92, 6.82, 5.33, 5.38, 4.67, 5.17, 7.28, 5.6, 8.82, 7.78, 8.63, 8.38, 5.96, 4.77, 8.9, 2.37, 5.13, 9.09, 9.27, 5.22, -0.411, 2.71, 6.53, 2.5, 2.99, 4.06, 2.43, 1.89, 3.57, 8.86, 4.56, 5.62, 6.37, 4.91, 6.81, 5.93, 9.13, 7.53 (2×), 8.83, 8.27, 9.1, 8.05, 9.46, 8.62, 8.02, 8.57, 7.45, 8.22, 9.37, 6.61, 8.21, 7.39, 9.44, 9.66%”, the growth ([2]; runs of 2016) was “active: 8.28, 7.75, 7.78, 8.4, 9.94, 8.66, 8, 8.8, 7.23, 8.75, 5.02, 5.1 (2×), 7.47, 8.01, 3.14, 4.77, 2.74, 4.22, 2.45, 2.6, 5.44, 5.11, 4.96, 7.4, 7.58, 8.57, 6.26, 4.38, 6.17, 7.28, 6.78, 5.87, 7.32, 7.92, 6.77, 7.48, 4.3, 9.93, 8.02, 9.7, 9.31, 9.46, 8.58, 9.32, 7.44, 9.63, 7.76, 9.73, 8.33, 9.11% and inactive: 11.5 (6×), 10.2 (4×), 12.6, 10.7, 12.1 (3×), 10.9, 14.5, 10 (2×), 13.7 (2×), 11.8, 16.4, 15.2, 13.5, 11.7, 11.3, 10.6, 10.4%” and the growth ([2]; runs of 2017) was “inactive: 11.6, 11.3 (2×), 11.5, 13.2% and active: 9.52, 8.85, 7.69, 5.32, 7.22, 6.35, 4.9, 5.62, 7.46, 5.78, 5.02, 5.52, 5.8, 4.44, 7.39, 5.67, 6.1, 7.76, 8.01, 6.01, 5.75 (2×), 9.5, 6.42, 8.4, 6.55, 5.63, 4.96, 6.11, 7.92, 6.03, 9.08, 9.71, 6.88, 3.6, 5.87, 6.47, 6.46, 6.5, 8.8, 7.91, 6.37, 7.36, 7.42, 7.57, 8.33, 7.2 (2×), 6.22, 7.21, 9.33, 9.2, 9.13, 5.6, 7.33, 5.04, 7.52, 6.51, 6.61, 4.87, 5.74, 7.23, 7.88, 8.74, 9.88, 9.68, 6.91, 6.44, 6.92, 9.37, 9.14%”.
